This is an account of results in publication PMC12820563, “FoxP3 forms a head-to-head dimer in vivo and stabilizes its multimerization on adjacent microsatellites”.

The other results are listed elsewhere or left out.

The target in this test is T1, MBP-FoxP1dN (Mus musculus, UniProt P58462 326-579).
T1 sequence: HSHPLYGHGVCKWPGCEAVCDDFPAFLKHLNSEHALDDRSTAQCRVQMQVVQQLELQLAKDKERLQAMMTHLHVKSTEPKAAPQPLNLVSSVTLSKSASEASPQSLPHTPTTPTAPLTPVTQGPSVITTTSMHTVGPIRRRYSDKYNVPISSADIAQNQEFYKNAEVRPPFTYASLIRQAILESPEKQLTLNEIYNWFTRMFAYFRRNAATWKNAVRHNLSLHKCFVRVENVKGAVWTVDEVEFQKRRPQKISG
Put plainly: PD-seq (MBP pull-down with sequencing); 20 mM Tris-HCl pH 7.5, 100 mM NaCl, 1.5 mM MgCl2, 0.4 uM protein, 0.1 uM dsDNA library, 30 min, room temperature, amylose pull-down; high values mean tight binding. The following applies: protein: recombinant; tags: His6-MBP; chain copies: 2; dsDNA, one strand shown. An outline of the steps: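 A fragment of mouse FoxP3 or FoxP1 without its N-terminus, carrying a His6-MBP tag and produced in E. coli, was combined at 0.4 µM with a 0.1 µM degenerate double-stranded DNA library filled in with Klenow. The mixture sat for 30 min at room temperature in Tris pH 7.5 buffer containing NaCl and MgCl2. Protein–DNA complexes were captured on amylose resin, washed three times, and the DNA was freed with proteinase K, barcoded by PCR and sequenced on Illumina. Binding is expressed as reads-per-million enrichment of pull-down over input, with replicates pooled.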
As for “GATGATTGTTCTCCCAGCTGATGAATTGACTGCATCGAGTAAACAAATTTTCCTAATCTTTCTGTTCAAGCGCCATCTAC”, the binding signal is 1.26 RPM ratio (pull-down/input).

Take “GATGATTGTTCTCCCAGCTGATGAATTCGGCGCGTCGAGTAAACAAATTTTCCTAATCTTTCTGTTCAAGCGCCATCTAC”: the binding signal was 0.928 RPM ratio (pull-down/input).

In the case of “GATGATTGTTCTCCCAGCTGATGAATTAGTGGGTTCGAGTAAACAAATTTTCCTAATCTTTCTGTTCAAGCGCCATCTAC”, the binding signal is 0.904 RPM ratio (pull-down/input).

Take “GATGATTGTTCTCCCAGCTGATGAATTCTGCTGGTCGAGTAAACAAATTTTCCTAATCTTTCTGTTCAAGCGCCATCTAC”: the binding signal was 0.85 RPM ratio (pull-down/input).

On to “GATGATTGTTCTCCCAGCTGATGAATTTGCCGTATCGAGTAAACAAATTTTCCTAATCTTTCTGTTCAAGCGCCATCTAC”, for which the binding signal is 1.01 RPM ratio (pull-down/input).

For “GATGATTGTTCTCCCAGCTGATGAATTACAATCGTCGAGTAAACAAATTTTCCTAATCTTTCTGTTCAAGCGCCATCTAC”, the binding signal is 1.15 RPM ratio (pull-down/input).

Consider “GATGATTGTTCTCCCAGCTGATGAATTAATTGGATCGAGTAAACAAATTTTCCTAATCTTTCTGTTCAAGCGCCATCTAC”, for which the binding signal is 0.933 RPM ratio (pull-down/input).

Turning to “GATGATTGTTCTCCCAGCTGATGAATTAATCCATTCGAGTAAACAAATTTTCCTAATCTTTCTGTTCAAGCGCCATCTAC”, the binding signal was 0.904 RPM ratio (pull-down/input).

Consider “GATGATTGTTCTCCCAGCTGATGAATTAGATGAATCGAGTAAACAAATTTTCCTAATCTTTCTGTTCAAGCGCCATCTAC”, for which the binding signal was 1.01 RPM ratio (pull-down/input).

Turning to “GATGATTGTTCTCCCAGCTGATGAATTCTCCCGATCGAGTAAACAAATTTTCCTAATCTTTCTGTTCAAGCGCCATCTAC”, the binding signal was 0.902 RPM ratio (pull-down/input).

For the sequence “GATGATTGTTCTCCCAGCTGATGAATTCGCCGGGTCGAGTAAACAAATTTTCCTAATCTTTCTGTTCAAGCGCCATCTAC”, the binding signal is 0.782 RPM ratio (pull-down/input).

For the sequence “GATGATTGTTCTCCCAGCTGATGAATTTATATAATCGAGTAAACAAATTTTCCTAATCTTTCTGTTCAAGCGCCATCTAC”, the binding signal is 1.3 RPM ratio (pull-down/input).

As for “GATGATTGTTCTCCCAGCTGATGAATTAGTTAGCTCGAGTAAACAAATTTTCCTAATCTTTCTGTTCAAGCGCCATCTAC”, the binding signal was 0.932 RPM ratio (pull-down/input).

On to “GATGATTGTTCTCCCAGCTGATGAATTCCCAGTATCGAGTAAACAAATTTTCCTAATCTTTCTGTTCAAGCGCCATCTAC”, for which the binding signal is 0.904 RPM ratio (pull-down/input).

For the sequence “GATGATTGTTCTCCCAGCTGATGAATTTCGGCTCTCGAGTAAACAAATTTTCCTAATCTTTCTGTTCAAGCGCCATCTAC”, the binding signal was 0.854 RPM ratio (pull-down/input).

Consider “GATGATTGTTCTCCCAGCTGATGAATTACTCCGATCGAGTAAACAAATTTTCCTAATCTTTCTGTTCAAGCGCCATCTAC”, for which the binding signal is 0.985 RPM ratio (pull-down/input).

As for “GATGATTGTTCTCCCAGCTGATGAATTGCTATTTTCGAGTAAACAAATTTTCCTAATCTTTCTGTTCAAGCGCCATCTAC”, the binding signal is 2.22 RPM ratio (pull-down/input).

As for “GATGATTGTTCTCCCAGCTGATGAATTTCCTGAGTCGAGTAAACAAATTTTCCTAATCTTTCTGTTCAAGCGCCATCTAC”, the binding signal is 0.85 RPM ratio (pull-down/input).

Turning to “GATGATTGTTCTCCCAGCTGATGAATTGACCTTATCGAGTAAACAAATTTTCCTAATCTTTCTGTTCAAGCGCCATCTAC”, the binding signal was 1.04 RPM ratio (pull-down/input).

As to “GATGATTGTTCTCCCAGCTGATGAATTCGCCTTTTCGAGTAAACAAATTTTCCTAATCTTTCTGTTCAAGCGCCATCTAC”, the binding signal is 0.941 RPM ratio (pull-down/input).

In the case of “GATGATTGTTCTCCCAGCTGATGAATTGGAGAGATCGAGTAAACAAATTTTCCTAATCTTTCTGTTCAAGCGCCATCTAC”, the binding signal was 0.828 RPM ratio (pull-down/input).

Take “GATGATTGTTCTCCCAGCTGATGAATTTACTGTTTCGAGTAAACAAATTTTCCTAATCTTTCTGTTCAAGCGCCATCTAC”: the binding signal was 1.35 RPM ratio (pull-down/input).

Regarding “GATGATTGTTCTCCCAGCTGATGAATTACGACATTCGAGTAAACAAATTTTCCTAATCTTTCTGTTCAAGCGCCATCTAC”, the binding signal was 1.11 RPM ratio (pull-down/input).

For “GATGATTGTTCTCCCAGCTGATGAATTCAGCTAATCGAGTAAACAAATTTTCCTAATCTTTCTGTTCAAGCGCCATCTAC”, the binding signal is 0.917 RPM ratio (pull-down/input).

In the case of “GATGATTGTTCTCCCAGCTGATGAATTGGTTAACTCGAGTAAACAAATTTTCCTAATCTTTCTGTTCAAGCGCCATCTAC”, the binding signal is 1.01 RPM ratio (pull-down/input).

On to “GATGATTGTTCTCCCAGCTGATGAATTTGGCGGTTCGAGTAAACAAATTTTCCTAATCTTTCTGTTCAAGCGCCATCTAC”, for which the binding signal is 0.802 RPM ratio (pull-down/input).

With “GATGATTGTTCTCCCAGCTGATGAATTCGACGCGTCGAGTAAACAAATTTTCCTAATCTTTCTGTTCAAGCGCCATCTAC”, the binding signal is 0.902 RPM ratio (pull-down/input).

For the sequence “GATGATTGTTCTCCCAGCTGATGAATTATGAATGTCGAGTAAACAAATTTTCCTAATCTTTCTGTTCAAGCGCCATCTAC”, the binding signal was 0.997 RPM ratio (pull-down/input).

Take “GATGATTGTTCTCCCAGCTGATGAATTTGTTCCTTCGAGTAAACAAATTTTCCTAATCTTTCTGTTCAAGCGCCATCTAC”: the binding signal is 1.11 RPM ratio (pull-down/input).

For “GATGATTGTTCTCCCAGCTGATGAATTGAGGTGTTCGAGTAAACAAATTTTCCTAATCTTTCTGTTCAAGCGCCATCTAC”, the binding signal was 0.943 RPM ratio (pull-down/input).

On to “GATGATTGTTCTCCCAGCTGATGAATTGCACTCGTCGAGTAAACAAATTTTCCTAATCTTTCTGTTCAAGCGCCATCTAC”, for which the binding signal is 1.09 RPM ratio (pull-down/input).

On to “GATGATTGTTCTCCCAGCTGATGAATTAAAGCCATCGAGTAAACAAATTTTCCTAATCTTTCTGTTCAAGCGCCATCTAC”, for which the binding signal is 1.04 RPM ratio (pull-down/input).
